Laboratory results: PubChem BioAssay AID1645882 (National Center for Advancing Translational Sciences (NCATS), 2021)
Screen size: about 16,000 compounds; about 120 (0.75%) were called active. About 4% were inconclusive and are not listed. Calls come from the whole dose curve; as a rule, active = well fitted inhibition curve with a large enough effect; inconclusive = small, poorly fitted or top-dose-only effect; inactive = no such curve, though single readings can be large or run the other way. Some of the results follow.

The molecules below were run against Rap guanine nucleotide exchange factor 3 (Homo sapiens) (UniProt O95398) (assay: Validation qHTS for antagonist of cAMP-regulated guanine nucleotide exchange factor 3 (EPAC1)). Conditions: EPAC1 Rap1B-BODIPY-GDP exchange, fluorescence; series mostly up to 150 µM; activity change, negative = inhibition: at the top concentration.
Chain of UniProt O95398 (O95398 whole entry, looked up): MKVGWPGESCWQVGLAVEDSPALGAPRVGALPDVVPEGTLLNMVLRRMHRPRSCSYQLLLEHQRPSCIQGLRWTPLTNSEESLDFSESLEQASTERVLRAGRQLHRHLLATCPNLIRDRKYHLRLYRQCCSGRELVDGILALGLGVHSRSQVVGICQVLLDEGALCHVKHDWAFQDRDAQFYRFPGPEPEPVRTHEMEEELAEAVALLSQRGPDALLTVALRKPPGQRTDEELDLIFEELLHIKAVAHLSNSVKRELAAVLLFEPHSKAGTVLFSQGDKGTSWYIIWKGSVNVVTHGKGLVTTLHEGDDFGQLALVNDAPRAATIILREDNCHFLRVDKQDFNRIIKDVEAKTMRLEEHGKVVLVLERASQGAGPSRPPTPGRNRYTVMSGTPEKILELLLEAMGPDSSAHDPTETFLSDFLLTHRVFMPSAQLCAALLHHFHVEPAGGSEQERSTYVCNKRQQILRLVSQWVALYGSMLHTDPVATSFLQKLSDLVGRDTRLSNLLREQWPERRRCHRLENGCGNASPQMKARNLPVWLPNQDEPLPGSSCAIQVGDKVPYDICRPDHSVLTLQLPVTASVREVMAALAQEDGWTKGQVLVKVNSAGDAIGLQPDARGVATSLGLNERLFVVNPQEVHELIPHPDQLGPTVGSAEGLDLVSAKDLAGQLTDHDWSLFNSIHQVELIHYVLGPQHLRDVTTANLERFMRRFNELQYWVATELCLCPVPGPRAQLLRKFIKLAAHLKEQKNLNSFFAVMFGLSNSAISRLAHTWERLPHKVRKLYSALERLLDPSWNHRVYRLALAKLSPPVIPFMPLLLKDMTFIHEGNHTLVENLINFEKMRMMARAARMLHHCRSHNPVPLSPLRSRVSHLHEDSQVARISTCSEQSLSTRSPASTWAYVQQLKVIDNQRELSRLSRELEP
Method in brief: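 EPAC1 (100 nM) mixed with 250 nM RAP1B-BODIPY-GDP and 50 uM GDP; compounds in concentration series, 5 min at room temperature. Fluorescence (ex 480/em 540 nm) read every 5 min for 30 min; normalized to ATA control and DMSO.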
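Note: plate controls were DMSO for no effect and ATA control for full effect; nearly all actives have a fitted effect of over 75% in size.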

Activity change, negative = inhibition, inactive:
Cc1nc2sccn2c1CN1CCOc2ccc(CN3CCN(c4ccc(F)cc4)CC3)cc2C1 2.99%, C[C@@H](CN=[N+]=[N-])CN1CC[C@H](NC(=O)OCc2ccccc2)CCC1=O 16.9%, COc1cc(=O)n2c(c1C(=O)N(C)Cc1ccsc1)CCN(Cc1cnn(C)c1C)CC2 5.04%, CCc1nc2cc(C(=O)N(C)CC3COCCO3)cc(NC(=O)c3ccccc3OC)c2n1C (stereo unspecified) 6.57%, O=S(=O)(c1ccccc1)N1CCC2(CCN(c3ncccn3)CC2)CC1 -5.12%, CCC1(C2CCN(Cc3cc4ccccc4o3)CC2)NC(=O)N(CC2COc3ccccc3O2)C1=O (stereo unspecified) -16.9%, Cc1cnc(CNc2ncncc2-c2ccccc2C)cn1 -0.418%, CN(C)c1ncc2nc(-c3ccc(F)cc3)c(=O)n(C[C@H]3CCCO3)c2n1 5.37%, C=CCN1C(=O)C(CC(C)C)NC1=S (stereo unspecified), Cc1ccc(C(=O)Nc2cccc(-c3nc(CNC(=O)c4ccccc4-n4cccn4)c(C)o3)c2)s1 8.84%, FC(F)(F)c1ccccc1-c1nc(NCc2cccnc2)c2ccccc2n1 2.68%, CC(O)[C@H]1CC[C@H]2[C@@H]3CC[C@@H]4C[C@@H](O)CC[C@]4(C)[C@H]3CC[C@]12C (stereo partly specified) 5.4%, CC(=O)N1CCN(c2ccc(OC[C@H]3CO[C@](Cn4ccnc4)(c4ccc(Cl)cc4Cl)O3)cc2)CC1, O=C(c1ccncc1)N1CCC2(CCCN(Cc3ccccc3)C2)CC1 18.5%, CS(=O)(=O)N1CCC2(CC1)CN(c1ccccc1)C2 -5.33%, CCCCCCC[n+]1ccc(/C=C/c2c(C)[nH]c3ccccc23)cc1 54%, CC(=O)[C@H]1CC[C@H]2[C@@H]3CCC4=CC(=O)CC[C@]4(C)[C@H]3CC[C@]12C, CC(=O)OC1CC[C@@]2(C)C3CC[C@@]4(C)C(CC5O[C@@]6(CCC(C)CO6)C(C)C54)C3CC[C@@H]2C1 (stereo partly specified) -12.7%, O=c1cnc2cncnc2n1Cc1ccccc1 11.2%, O=C(CCCCCCCCC#CI)Oc1ccccc1 27.5%, COc1cc(=O)n2c(c1C(=O)N(C)Cc1nonc1C)CCN(Cc1ccccc1Cl)CC2 17%, COc1ccc(C(=O)N2CCC3(CC2)CN(Cc2ccc(C#N)cc2)C3)cc1 -7.07%, C[C@@H]1CCC(=O)N(C[C@@H](C)CSc2ccc(Br)cc2)CC1 -14.1%, COCC1CCCN(c2nc(CN3CCN(C(=O)c4ccco4)CC3)nc3ccccc23)C1 (stereo unspecified) -0.794%, COC(=O)C[C@H]1c2cc(C(F)(F)F)ccc2S(=O)(=O)N1C1CCCCC1 -6.48%, C=CCCCCCCCCCCCc1ccco1 -11.1%, CCOC(=O)c1ccc(-c2c(-c3ccc4c(c3)OCO4)noc2-c2ccsc2)cc1F 0.926%, CN[C@@H]1[C@@H](O)[C@@H](O[C@@H]2[C@@H](O)[C@H](O[C@H]3O[C@H](CN)[C@@H](O)[C@H](O)[C@H]3O)[C@@H](N)C[C@H]2NC(=O)C(O)CN)OC[C@]1(C)O (stereo partly specified) 23.6%, F[Si-2](F)(F)(F)(F)F -7.94%, COc1ccccc1CN1CCOc2ccc(C(C)(O)CN(C)C)cc2C1 (stereo unspecified) 5.61%, O=C(O)CCCCC(=O)O 0.379%, C[C@H]1OC(=O)CC[C@@H]2[C@]1(C)CCC1[C@@]2(C)CC[C@@]2(C)C3CC(C)(C)CC[C@]3(CO)CC[C@]12C (stereo partly specified) 22.4%, CN1CCN(c2ncc3nc(-c4cn(C)c5ccccc45)c(=O)n(Cc4cccs4)c3n2)CC1 13.2%, Cc1ccc(CN2[C@H](C)[C@H](c3ccccc3)OCCS2(=O)=O)cc1 -14.1%, CN(CCO)C(=O)c1cn(C2CCN(Cc3ccc4ccccc4c3)CC2)nn1 4.33%, CCCCCCCC(=O)OC[C@H](CO)OC(=O)CCCCCCC -8.3% [at 15.3 µM], C[C@H]1C[C@@H]2[C@@H]([C@@H](O)C[C@@]3(C)[C@H]2CC[C@]3(O)C(=O)CO)[C@@]2(C)C=CC(=O)C=C12 21.1% [at 75.8 µM], O=C(/C=C/c1ccccc1)OC1CC(O)C2(O)C=CO[C@@H](OC3OC(CO)C(O)C(O)C3O)C12 (stereo partly specified) -6.68%, CN(C)CCOC(c1ccccc1)c1ccccc1, CN1CCc2cccc3c2[C@@H]1Cc1ccc(O)c(O)c1-3 -7.21%, CC(O)C(=O)O (stereo unspecified) 3.25%, N#Cc1cccc(NC(=O)N2CCCC3(CCN(C(=O)c4csnn4)CC3)C2)c1 21.1%, CCC1CN(CC(=O)N(C)Cc2nc3ccccc3[nH]2)Cc2cc(OC)ccc2O1 (stereo unspecified) 12.9%, NC(=S)N/N=C/c1cccnc1 7.36%, Cc1c(C2CCN(CCc3ccccc3)CC2)noc1-c1ccc(Cl)cc1, COc1ccc2cc1Oc1ccc(cc1)CC1c3cc(c(OC)cc3CCN1C)Oc1c(OC)c(OC)cc3c1C(C2)N(C)CC3 (stereo unspecified) -13.8%, CN1C2CCC1CC(OC(c1ccccc1)c1ccccc1)C2 (stereo unspecified) 4.92% [at 75.8 µM], Cc1cccc(C(=O)NCc2nc(-c3ccccc3NC(=O)C3CCCO3)oc2C)c1 (stereo unspecified) 20.8%, Cc1cnc(-n2ncc(C(=O)N(C)CC3CCCN(C)C3)c2C2CC2)nc1-c1cccs1 (stereo unspecified) -10.3%, CCC1CN(CC(=O)NC(C)CO)Cc2cc(OC)ccc2O1 (stereo unspecified) 14.1%, NCCCCCCNS(=O)(=O)c1cccc2c(Cl)cccc12, Cc1cc2ccccc2c[n+]1C1CCCCC1 18.9%, CCC(C)(C)OC(=O)N[C@@H](Cc1c[nH]c2ccccc12)C(=O)N[C@@H](CCSC)C(=O)N[C@@H](CC(=O)O)C(=O)N[C@@H](Cc1ccccc1)C(N)=O 29%, CCCCN(CCC#N)c1ccc(/C=C/c2ccnc3ccccc23)cc1 16.2%, Nc1ncnc2c1ncn2[C@@H]1O[C@H](C(=O)NC2CC2)[C@@H](O)[C@H]1O 30%, COc1ccc(C(=O)N2CCC3(CCCN(C)C3)CC2)cc1 12.4%, COc1cc(C2Oc3cc(C4Oc5cc(O)cc(O)c5C(=O)C4O)ccc3OC2CO)ccc1O (stereo unspecified) 21%, COc1ncc2nc(-c3cccs3)c(=O)n(-c3ccccc3)c2n1 -0.0001%, CC(C)CNC(=O)c1cn(C2CCN(Cc3nc4ccccc4s3)CC2)nn1 2.49%, CCCCCCCCCCCCCCCCCC(=O)NCC(COP(=O)([O-])OCC[N+](C)(C)C)OCC (stereo unspecified) -4.6% [at 75.8 µM], CCC(=O)O[C@@H]1CC(=O)O[C@H](C)C/C=C/C=C/[C@@H](O)[C@H](C)C[C@H](CC=O)[C@H](OC2O[C@H](C)[C@@H](O[C@H]3C[C@@](C)(O)[C@@H](OC(=O)CC)[C@H](C)O3)[C@H](N(C)C)[C@H]2O)[C@H]1OC (stereo partly specified) 10.3% [at 39.6 µM]
